Molecules are shown by their SMILES. Hit rate of the full screen: of about 45,000 compounds, about 65 (0.1%) were called active. Calls follow the shape of the dose curve; as a rule, active = well fitted activation curve with a large enough effect; inconclusive = small, poorly fitted or top-dose-only effect; inactive = no such curve, though single readings can be large or run the other way. This is one part of the list.

This assay addresses Galactocerebrosidase (Homo sapiens) (UniProt P54803). The experiment in a line: A Novel Cell-Based Assay to Identify Small Molecules for B -Galactocerebrosidase. Also: 0% is about no effect; nearly all actives have a fitted effect of over 65% in size. The following applies: 145M-Twi-hGALC-G270D cells (Twitcher mouse brain line with human GALC G270D), HMU-beta-Gal fluorescence, 48 h; series mostly up to 57.5 µM; activation: at the top concentration. The procedure, abridged: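 Live 145M-Twi cells (Twitcher mouse brain-derived, GALC-null) stably expressing human GALC-G270D, with a wild-type GALC line, were compound-treated. Residual GALC activity was then read as fluorescence from 0.1 mM final HMU-β-gal at pH 5.2; higher signal means activation.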
Chain of UniProt P54803 (P54803 whole entry, looked up): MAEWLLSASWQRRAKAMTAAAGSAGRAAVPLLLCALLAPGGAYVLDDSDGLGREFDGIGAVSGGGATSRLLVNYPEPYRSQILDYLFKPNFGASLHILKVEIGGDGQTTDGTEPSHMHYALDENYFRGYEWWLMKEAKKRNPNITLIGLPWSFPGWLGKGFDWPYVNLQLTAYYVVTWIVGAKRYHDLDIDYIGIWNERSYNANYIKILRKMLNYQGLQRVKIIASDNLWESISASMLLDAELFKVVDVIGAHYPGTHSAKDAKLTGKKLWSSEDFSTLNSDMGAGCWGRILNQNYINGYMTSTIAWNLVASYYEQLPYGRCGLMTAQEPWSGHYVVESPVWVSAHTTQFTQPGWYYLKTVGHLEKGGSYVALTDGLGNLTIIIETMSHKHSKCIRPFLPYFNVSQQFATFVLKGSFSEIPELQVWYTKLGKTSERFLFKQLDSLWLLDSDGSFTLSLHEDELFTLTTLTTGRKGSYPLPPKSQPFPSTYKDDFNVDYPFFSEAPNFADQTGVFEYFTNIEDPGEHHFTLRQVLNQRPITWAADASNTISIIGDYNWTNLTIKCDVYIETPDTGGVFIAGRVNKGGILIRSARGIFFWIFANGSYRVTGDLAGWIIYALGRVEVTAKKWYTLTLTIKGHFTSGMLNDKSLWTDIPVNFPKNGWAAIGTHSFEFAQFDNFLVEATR
On to `Cc1ccc2sc(N(Cc3cccnc3)C(=O)CCOc3ccccc3)nc2c1C`, for which the “activation” value was inactive: -10.7%.

As to `Cc1c(C(=O)N(Cc2ccc(N(C)C)cc2)C2CCS(=O)(=O)C2)oc2ccccc12` (configuration not stated), the “activation” value was inactive: -7.03%.

Regarding `O=C(c1ccc2c(c1)N(Cc1ccccc1)C(=O)c1ccccc1S2(=O)=O)N1CCN(c2ccccc2)CC1`, the “activation” value was inactive: 13.7%.

With `COc1ccc(OC)c(C2NC(=O)NC(C)=C2C(=O)Nc2cc(C)cc(C)c2)c1` (configuration not stated), the “activation” value was inactive: -16.7%.

`COc1ccc(CCNC(=O)Cc2c(C)c3c(cc(C)c4c(C)coc43)oc2=O)cc1OC`: the “activation” value is inactive: -1.02%.

In the case of `Cc1ccc(OCC(=O)Nc2ccc(OCc3cc(=O)n4cccc(C)c4n3)cc2)cc1C`, the “activation” value was inactive: -1.59%.

As for `Cc1nn(C(C)C(=O)NC2CCCCC2)c(=O)c2c1sc1ccccc12` (configuration not stated), the “activation” value is inactive: -12.3%.

For the compound `Cc1ccc(-c2nnc(Nc3ccc(Br)cc3)c3ccccc23)cc1S(=O)(=O)N1CCN(C)CC1`, the “activation” value is inactive: 8.37%.

As for `COc1ccc(CC(=O)NC2CC(=O)N(c3cccc(F)c3)C2)cc1` (configuration not stated), the “activation” value is inactive: 2.72%.

`CCN(c1ccccc1)C(CNS(=O)(=O)c1ccccc1)c1ccccc1` (configuration not stated): the “activation” value was inactive: -2.07%.

For `COc1ccc(CCNC(=O)c2ccc3c(c2)CCN3S(C)(=O)=O)cc1`, the “activation” value is inactive: -15.6%.

Take `COc1ccc2c(CNCc3ccc(C)o3)c(C(=O)O)n(Cc3ccccc3C)c2c1`: the “activation” value was inactive: -17.1%.

As to `CCN(C(=O)C(=O)Nc1ccc2nc3n(c(=O)c2c1)CCCCC3)c1ccc(F)cc1`, the “activation” value was inactive: 0.401%.

Consider `COc1ccc(C2CC(=O)c3cc(-c4nc(-c5cccc([N+](=O)[O-])c5)cs4)c(=O)n(-c4ccc(C)c(C)c4)c3C2)cc1` (configuration not stated), for which the “activation” value is inactive: -4.34%.

`Cc1nnc(NC(=O)CSc2nc3c([nH]c4ccccc43)c(=O)n2-c2ccccc2)s1`: the “activation” value is inactive: -12.2%.

For the compound `O=C(Nc1c(C(=O)N2CCN(c3ccc(F)cc3)CC2)oc2ccccc12)c1c(F)cccc1F`, the “activation” value is inactive: -25%.

`CC(O)CN(CCN(CC(C)O)CC(C)O)CC(C)O` (configuration not stated): the “activation” value was inactive: -11.9%.

`CCC1CCCCN1CCCNC(=O)CN1C(=O)c2cccnc2Oc2ccc(Cl)cc21` (configuration not stated): the “activation” value was inactive: -4.33%.

On to `Cc1sccc1Br`, for which the “activation” value was inactive: -12.3%.

As to `O=C(Cn1cc(SCc2ccc(C(F)(F)F)cc2)c2ccccc21)N1CCCCCC1`, the “activation” value is inactive: -12.6%.

Take `COc1ccc(Cn2c(CNC(=O)c3ccc(N(C)C)cc3)nc3cccnc32)cc1`: the “activation” value is inactive: -12.9%.

For the compound `CC(C)Oc1ccc(C(=O)Nc2ccc3c(c2)CCCN3C(=O)c2cccs2)cc1`, the “activation” value is inactive: -15.8%.

Consider `CCC(Sc1nc2ccccc2c2nc(CCn3cncc3C)nn12)C(=O)Nc1cccc(OC)c1` (configuration not stated), for which the “activation” value was inactive: -4.91%.

Consider `Cc1ccc(NC(=O)c2oc3ccc(S(=O)(=O)N4CCCCCC4)cc3c2C)cc1Cl`, for which the “activation” value is inactive: -5.01%.

As for `CC(C)CSc1nnc(-c2ccccc2)c(-c2ccccc2)n1`, the “activation” value was inactive: -2.99%.

On to `Cc1cc(C)c2nc(N3CCCC(C(=O)NCc4cccc(Br)c4)C3)sc2c1` (configuration not stated), for which the “activation” value is inactive: -6.25%.

With `Fc1ccc(Nc2nc3ccccc3c3nncn23)c(Cl)c1`, the “activation” value is inactive: -6.62%.

With `COc1ccc(CCNC(=O)c2ccc(Cn3c(=O)c4ccccc4n(Cc4cc(C)ccc4C)c3=O)cc2)cc1OC`, the “activation” value is inactive: -18.5%.

On to `Cc1ccc2oc(=O)c3cc(C(=O)Nc4ccc(F)cc4F)sc3c2c1`, for which the “activation” value was inactive: -11.2%.

Take `CCc1ccc(NC(=O)C2CCC(CNS(=O)(=O)c3ccc4c(c3)CC(C)N4C(C)=O)CC2)cc1` (configuration not stated): the “activation” value is inactive: -3.6%.

Turning to `COc1ccc(-c2nc3ccccc3s2)cc1NC(=O)COc1ccccc1C`, the “activation” value is inactive: -6.32%.

For `COc1ccccc1OCCn1c(NC(=O)c2ccc(Cl)cc2)nc2ccccc21`, the “activation” value is inactive: -18.2%.

`CCCN1C(=O)c2[nH]nc(-c3ccccc3O)c2C1c1ccc(OCc2ccccc2)c(OCC)c1` (configuration not stated): the “activation” value is inactive: -9.11%.

Regarding `Cc1ccc(Cl)cc1NC(=O)CN1C(=O)c2cccc3cccc1c23`, the “activation” value was inactive: -5.98%.

Consider `COc1ccc(C)c2sc(N(Cc3cccnc3)C(C)=O)nc12`, for which the “activation” value was inactive: -14.9%.

On to `N#Cc1cccc(NC(=O)Cn2nc(Cc3ccncc3)c3ccccc3c2=O)c1`, for which the “activation” value is inactive: 0.58%.

`CCN1C(=O)C(Cc2nc3ccccc3c(=O)n2-c2ccc(OC)cc2)c2cc(C)ccc21` (configuration not stated): the “activation” value was inactive: -6.16%.

Take `Cc1ccc(C)c(Nc2nc(-c3ccccc3)c3cc(Br)ccc3n2)c1`: the “activation” value is inactive: -13.2%.

On to `O=C(COc1ccccc1)NCCc1csc(-c2cccc(F)c2)n1`, for which the “activation” value was inactive: -10.4%.

As to `COC(=O)c1cccc(Cn2nnc3sc4c(c3c2=O)CCC(C(C)(C)C)C4)c1` (configuration not stated), the “activation” value is inactive: -16.4%.

Regarding `COc1ccc(CCNC(=O)CCCCn2c(=O)c3ccccc3n(CC(=O)Nc3ccc(C)cc3C)c2=O)cc1OC`, the “activation” value is inactive: -12.5%.

`CCN(CC)CCNC(=O)C(=O)NCC(c1cccnc1)N1CCN(c2ccccc2)CC1` (configuration not stated): the “activation” value is inactive: -12.7%.

In the case of `O=C(Nc1cccc(Cl)c1)c1cc(-c2ccc3c(c2)OCCO3)on1`, the “activation” value was inactive: -13.7%.

For the compound `Cc1nnc(N2CCCC(C(=O)Nc3cccc(C(F)(F)F)c3)C2)c2nn(-c3ccccc3)c(C)c12` (configuration not stated), the “activation” value was inactive: -11.5%.

Turning to `Cc1cccc(N(C)C(CNS(=O)(=O)c2ccccc2)c2ccccc2)c1` (configuration not stated), the “activation” value is inactive: -0.945%.

As for `Cc1cccc(C(=O)Nc2cccc(OCc3cc(=O)n4cccc(C)c4n3)c2)c1`, the “activation” value was inactive: -5.56%.

In the case of `O=C(CSc1ccccc1)NCc1ccc2c(c1)CCN2C(=O)c1ccc(Cl)cc1`, the “activation” value was inactive: -10.8%.

Take `CC(C)(C)OC(=O)N1CCC(c2c(C(=O)NC3CCCCC3)cnn2-c2cccc(F)c2)CC1`: the “activation” value is inactive: -5.39%.

With `Cc1cc(Sc2ccc(Cl)cc2)nc2ccccc12`, the “activation” value is inactive: -14.5%.

For `CC(NC(=O)c1ccc(NC(=O)c2nsc3ccccc23)cc1)c1ccccc1` (configuration not stated), the “activation” value was inactive: -8.13%.

`Cn1nnnc1SCCNCc1ccc(OCc2ccccc2Cl)cc1`: the “activation” value was inactive: 11.9%.

On to `Cc1cccc(C(=O)Nc2cccc(C(=O)OCc3cc(=O)n4nc(C(C)C)sc4n3)c2)c1`, for which the “activation” value was inactive: -8.28%.

Turning to `Cc1ccc(N(C)S(=O)(=O)c2ccc3[nH]c4c(c3c2)CCCC4)cc1`, the “activation” value was inactive: -12.5%.

Regarding `O=C(COc1ccccc1)NCc1ccc2c(c1)CCN2C(=O)c1ccccc1`, the “activation” value was inactive: -9.27%.

`Cc1ccc(NC(=O)CSc2c3c(nc4ccccc24)CCCC3)cc1F`: the “activation” value was inactive: -4.45%.

In the case of `Cc1ccc(CCNC(=O)c2cc(Nc3ccc(C)c(C)c3)nc3ccccc23)cc1`, the “activation” value was inactive: -24.8%.

Consider `CC(C)C1C(=O)Nc2ccc(S(=O)(=O)NCc3ccc(Cl)cc3)cc21` (configuration not stated), for which the “activation” value is inactive: -29.3%.

Consider `CC(=O)c1cccc(NC(=O)c2c(-c3ccccc3)c(-c3ccccc3)nn(C)c2=O)c1`, for which the “activation” value was inactive: -9.66%.

As for `CN(Cc1ccccc1)c1ccc(-c2nc(-c3ccco3)no2)cc1[N+](=O)[O-]`, the “activation” value was inactive: -19.6%.

For the compound `Cc1ccccc1Nc1c(-c2cccc(N(C)C)c2)nc2ccc(Br)cn12`, the “activation” value is inactive: -12.2%.

In the case of `Cc1cc(F)ccc1-n1nnc(C(N)=O)c1C`, the “activation” value is inactive: -9.2%.

On to `O=C(c1ccccc1Cl)N(Cc1ccco1)Cc1ccco1`, for which the “activation” value is inactive: -6.31%.

The values are drawn from PubChem BioAssay AID1159614 (National Center for Advancing Translational Sciences (NCATS), 2016).
